Consider 78 compounds from PubChem BioAssay AID1645887 (National Center for Advancing Translational Sciences (NCATS), 2021).

“And” between values parts separate entries of the source, which are not always exact repeats. Identical values can stand only once. The whole screen tested about 16,000 compounds, of which about 40 (0.2%) were called active. Not shown: some 1% with an inconclusive outcome. Calls come from the whole dose curve; as a rule, active = well fitted activation curve with a large enough effect; inconclusive = small, poorly fitted or top-dose-only effect, or another doubt; inactive = no such curve, though single readings can be large or run the other way. This is one part of the list.
% is set by controls: 0 for no effect and ±100 for the full control effect.

Sequence of UniProt Q8WZA2 (Q8WZA2 whole entry, looked up): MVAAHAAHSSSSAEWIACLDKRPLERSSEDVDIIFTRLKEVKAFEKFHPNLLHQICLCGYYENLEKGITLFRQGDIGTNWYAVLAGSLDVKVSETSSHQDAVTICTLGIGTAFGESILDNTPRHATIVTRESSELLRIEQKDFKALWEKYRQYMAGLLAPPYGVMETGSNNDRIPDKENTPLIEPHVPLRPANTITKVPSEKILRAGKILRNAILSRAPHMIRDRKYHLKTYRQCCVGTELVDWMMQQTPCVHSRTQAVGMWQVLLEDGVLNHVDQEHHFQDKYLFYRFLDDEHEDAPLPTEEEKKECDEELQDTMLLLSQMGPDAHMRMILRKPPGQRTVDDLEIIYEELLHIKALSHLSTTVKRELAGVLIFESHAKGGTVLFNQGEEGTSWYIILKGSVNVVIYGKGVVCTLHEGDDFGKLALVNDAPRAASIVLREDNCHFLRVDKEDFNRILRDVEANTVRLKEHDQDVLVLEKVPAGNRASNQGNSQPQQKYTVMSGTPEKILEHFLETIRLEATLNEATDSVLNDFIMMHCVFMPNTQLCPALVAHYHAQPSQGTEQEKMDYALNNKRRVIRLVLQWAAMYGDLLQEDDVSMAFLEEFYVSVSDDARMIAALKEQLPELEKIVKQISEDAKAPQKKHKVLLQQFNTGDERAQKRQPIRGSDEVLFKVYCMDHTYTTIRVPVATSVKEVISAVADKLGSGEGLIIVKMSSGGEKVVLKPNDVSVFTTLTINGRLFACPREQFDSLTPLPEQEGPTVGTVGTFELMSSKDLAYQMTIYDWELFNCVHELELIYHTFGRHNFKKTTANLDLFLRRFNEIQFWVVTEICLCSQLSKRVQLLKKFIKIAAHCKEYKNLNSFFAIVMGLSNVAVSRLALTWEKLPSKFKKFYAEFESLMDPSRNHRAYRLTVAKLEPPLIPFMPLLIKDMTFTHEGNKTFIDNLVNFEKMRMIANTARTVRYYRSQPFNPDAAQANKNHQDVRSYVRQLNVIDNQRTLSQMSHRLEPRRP

The target in this experiment is Rap guanine nucleotide exchange factor 4 (Homo sapiens) (UniProt Q8WZA2). Nature of the experiment: Validation qHTS for agonist of cAMP-regulated guanine nucleotide exchange factor 4 (EPAC2).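 Note: exchange makes BODIPY-GDP fluorescence drop when released from Rap1B; series mostly up to about 150 µM.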 As to conditions: EPAC2 Rap1B BODIPY-GDP exchange, fluorescence; activation: active compounds read high. A digest of the protocol:
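Fluorescent exchange assay: 100 nM EPAC2 with 250 nM RAP1B-BODIPY-GDP and 50 uM GDP; compound added, 5 min at room temperature, then read (ex 480/em 540 nm) every 5 min for 30 min. Normalized to 6.5 mM cAMP agonist control.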
(qHTS replaces the single test concentration by a dilution series.)
As for `O=c1[nH]c2ccccc2c2ccccc12`, the activation was inactive: 4.81% and inactive: -7.63%.
In the case of `C#CCN(C)Cc1ccccc1` it was inactive: -10.2% and inactive: -21.4%; in that of `Cc1c(C(=O)N2CCCC2)sc2ncnc(NCCN(C)C)c12`, inactive: -10.6%.
As for `CCn1cc(C(=O)O)c(=O)c2ccc(C)nc21`, the activation is inactive: 6.23% and inactive: 7.27% and inactive: -19.2%.
For the compound `C=C(NC(=O)C(=C)NC(=O)c1csc(C2=N[C@@H]3c4csc(n4)[C@H]4NC(=O)c5csc(n5)[C@H]([C@](C)(O)[C@@H](C)O)NC(=O)[C@H]5CSC(=N5)C(=CC)NC(=O)C([C@@H](C)O)NC(=O)c5csc(n5)[C@]3(CC2)NC(=O)[C@H](C)NC(=O)C(=C)NC(=O)[C@H](C)NC(=O)C([C@@H](C)CC)NC2C=Cc3c([C@H](C)O)cc(nc3C2O)C(=O)O[C@@H]4C)n1)C(N)=O` (stereo partly drawn), the activation is inactive: -36.6%.
In the case of `Cc1cc(C)cc(C(=O)N(C)[C@H](Cc2ccc(-c3ccccc3)cc2)C(=O)N[C@@H](Cc2c[nH]c3ccccc23)C(=O)O)c1` it was inactive: -21.4%; in that of `CC(=O)Nc1ccc(C(=O)N2CCCC(n3cc(C(=O)NCC(C)C)nn3)C2)cc1` (stereo not drawn), inactive: -2.55%.
Take `COC(=O)[C@]1(C)CCC[C@]2(C)c3ccc(C(C)C)cc3C(=O)CC12` (stereo partly drawn): the activation was inactive: -7.26%.
With `CCCCCc1ccc(C)cc1O`, the activation is inactive: -46.1%.
In the case of `CCCCCC(C)N` (stereo not drawn) it was inactive: 6.18%; in that of `CC(C)CN1CC2(CCN(C(=O)c3csnn3)CC2)C1`, inactive: 0.654%.
In the case of `COc1ccc2cc(CCC(C)=O)ccc2c1` it was inactive: 4.51% and inactive: -29%; in that of `O=C(O)CCC(=O)OC[C@@H](NC(=O)C(Cl)Cl)[C@H](O)c1ccc([N+](=O)[O-])cc1`, inactive: 9.7%; in that of `Cc1cccc(/C=C/c2ccccc2)n1`, inactive: -0.748% and inactive: -21%.
In the case of `C=C[C@H](N)CCC(=O)O` it was inactive: -10.7%.
With `Nc1ncnc2c1nc(Br)n2C1CC(O)C(CO)O1` (stereo not drawn), the activation is inactive: -4.78%.
`Nc1nc(SCc2ccc([N+](=O)[O-])cc2)c2ncn([C@@H]3O[C@H](CO)[C@@H](O)[C@H]3O)c2n1`: the activation was inactive: -1.95%.
As for `COc1ccc(CCN2CCC(Nc3nc4ccccc4n3Cc3ccc(F)cc3)CC2)cc1`, the activation was inactive: 4.12% and inactive: -15.2%.
As to `CN(C)CCOC1=Cc2ccccc2Sc2ccc(Cl)cc21`, the activation is inactive: -10.8%.
Turning to `CCN(Cc1ccncc1)C(=O)C(CO)c1ccccc1` (stereo not drawn), the activation is inactive: 0.574% and inactive: 1.24% and inactive: 0.103%.
In the case of `COc1ccccc1CN1CC2(CCN(C(=O)c3cc(C(F)(F)F)cc(C(F)(F)F)c3)CC2)C1` it was inactive: -21.1%.
On to `CS(=O)(=O)Nc1cccc(-c2ccc3ncnc(Nc4ccccc4)c3c2)c1`, for which the activation was inactive: 5.52%.
With `N=C(N)c1ccccc1`, the activation was inactive: -11.3%.
For `COc1cccc(Cn2c(=O)c(-c3ccc(F)cc3)nc3cncnc32)c1`, the activation is inactive: -0.492%.
Take `Cc1ccccc1-c1ccc2ncnc(NC3CC3)c2c1`: the activation was inactive: -9.43%.
In the case of `COc1ccc(CNc2ncnc3ccc(-c4ccccc4CN(C)C)cc23)c(OC)c1` it was inactive: -12.6%.
Take `CN(C)Cc1ccccc1-c1ccc2ncnc(N3CCOCC3)c2c1`: the activation was inactive: -16.3%.
In the case of `CCCCCCCCCCCCCCCCCCN(CCCCCCCCCCCCCCCCCC)c1ccc(/C=C/c2ccnc3ccccc23)cc1` it was inactive: -21.8%.
In the case of `CC(=O)NCCNc1nc(-c2ccccc2CN(C)C)nc2ccccc12`, the activation is inactive: -19.9%.
Take `CCC(C)C(=O)OC1C2CC3=C4CC(=O)OC(c5ccoc5)[C@]4(C)CCC3[C@@](C)(C2=O)C(CC(=O)OC)C1(C)C` (stereo partly drawn): the activation was inactive: -13.2%.
Consider `O=C(NCCNCC(O)COc1ccc(O)cc1)N1CCOCC1` (stereo not drawn), for which the activation is inactive: -29.4%.
In the case of `COC(=O)[C@@H]1CCCN1Cc1ccc2c(c1)CN(Cc1cccn1-c1ncccn1)CCO2` it was inactive: -4.52%; in that of `Cc1nc2sccn2c1CN1CCC2(CC1)CC2C(=O)Nc1ccc2c(c1)OCO2` (stereo not drawn), inactive: -5.94%; in that of `CCN(CC)CCSC(=O)C(c1ccccc1)c1ccccc1`, inactive: 11.6% and inactive: -19.8%.
In the case of `Cn1c(=O)c(-c2ccc(Cl)cc2)nc2cnc(Oc3cccc(Cl)c3)nc21` it was inactive: 5.61%; in that of `COc1ccc2ccccc2c1CN1CCc2nnc(C(NS(C)(=O)=O)C(C)C)n2CC1` (stereo not drawn), inactive: -23.7%.
In the case of `COc1cc(CN2CCC3(CCC(CNC(=O)c4cc(C)nn4C)O3)CC2)ccc1F` (stereo not drawn) it was inactive: 2.25%; in that of `CC[C@@H](C)[C@H]1O[C@]2(CC[C@H]1C)C[C@@H]1C[C@@H](CC=C(C)[C@@H](O[C@H]3C[C@H](OC)[C@@H](O[C@H]4C[C@H](OC)[C@@H](O)[C@H](C)O4)[C@H](C)O3)[C@@H](C)C=CC=C3CO[C@@H]4[C@H](O)C(C)=C[C@@H](C(=O)O1)[C@]34O)O2`, inactive: -73.6%.
Turning to `CNc1ncncc1-c1ccccc1C`, the activation is inactive: 0.301%.
In the case of `COCCn1c(=O)c(-c2ccccc2)nc2cnc(Oc3ccccc3)nc21` it was inactive: 2.26%.
In the case of `OC(CCN1CCCCC1)(c1ccccc1)C1CC2C=CC1C2` (stereo not drawn) it was inactive: 1.75% and inactive: -9.32% and inactive: -17.9%.
In the case of `COc1cc(=O)n2c(c1C(=O)NC(C)c1ccco1)CCN(Cc1cc(C)ccc1C)CC2` (stereo not drawn), the activation was inactive: 3.03%.
Regarding `C[C@@]12C(=O)OC(=O)[C@]1(C)C1CCC2O1`, the activation is inactive: 11.2%.
In the case of `Cc1ncc([N+](=O)[O-])n1CCO` it was inactive: -23.7%; in that of `CSCC[C@H](NC(=O)[C@H](Cc1ccccc1)NC[C@@H](NC[C@@H](N)CS)C(C)C)C(=O)O`, inactive: -4.71%; in that of `CCc1nc2cc(C(=O)N3CCC[C@H]3CO)cc(NC(=O)c3ccccc3OC)c2n1C`, inactive: 5.12%.
In the case of `COc1ccccc1CNc1nc(-c2ccccc2OC)nc2ccccc12` it was inactive: 17%.
As to `CCN(CC)CC#CCOC(=O)C(O)(c1ccccc1)C1CCCCC1` (stereo not drawn), the activation is inactive: -15.8% and inactive: -27.5%.
With `C=C(c1ccc2ccccc2n1)c1cccs1`, the activation is inactive: -7.73%.
In the case of `COc1ccc(CN2CC[C@H]3C=CC[C@@H](C(=O)NC4CCCCC4)[C@H]3C2=O)cc1OC` it was inactive: -7.22%; in that of `COCCNc1ncnc2ccc(-c3ccccc3C(F)(F)F)cc12`, inactive: -24.1%; in that of `CN1C2CCCC1CC(NC(=O)c1nn(C)c3ccccc13)C2` (stereo not drawn), inactive: -8.81%.
In the case of `COc1cccc(NC(=O)/C=C\c2ccc(Cl)cc2)c1` it was inactive: -7.57%; in that of `C=C1C(=C/C=C2\CCC[C@]3(C)[C@@H]([C@H](C)CCCC(C)(C)O)CC[C@@H]23)C[C@@H](O)C[C@@H]1O`, inactive: -17.1%.
As for `C#C[C@@]1(O)CCC2C3CCC4=CC(=O)CCC4C3CC[C@@]21CC` (stereo partly drawn), the activation was inactive: 9.43%.
On to `O=c1c(-c2cccs2)nc2cnc(Oc3ccccc3)nc2n1C1CC1`, for which the activation was inactive: -12.7%.
For the compound `CN(Cc1ccco1)c1ccnc(-c2cccc(NS(C)(=O)=O)c2)n1`, the activation was inactive: -12.3%.
In the case of `CCOC(=O)C1CCCCN1C(=O)c1cnn(-c2nccc(-c3cc(C)sc3C)n2)c1C1CC1` (stereo not drawn) it was inactive: -17%.
On to `COc1cccc(Cn2c(=O)c(-c3ccc(F)cc3)nc3cnc(N(C)C)nc32)c1`, for which the activation is inactive: -3.02%.
In the case of `CC(C)NC[C@@H](O)COc1ccc(COCCOC(C)C)cc1` it was inactive: -11.8%; in that of `Nc1nc(O)c2ncn([C@H]3CC[C@@H](CO)O3)c2n1`, inactive: -0.153%.
In the case of `COc1ccc2[nH]cc(CCNc3ncncc3-c3ccccc3OC)c2c1` it was inactive: 9.15%; in that of `Cn1cccc1C(=O)N1CCC2(CC1)CN(c1cccc(-c3ccccc3)c1)C2`, inactive: 14.4%.
In the case of `COc1ccc(C(=O)N2CCC[C@@]3(CCN(c4ccccc4)C3)C2)cc1` it was inactive: -9%; in that of `COC(=O)c1cc(CNC(=O)c2cnsn2)cc(NC(=O)c2ccccc2OC)c1`, inactive: 3.07%; in that of `Cc1nc2cnc(OCc3ccccc3)nc2n(C)c1=O`, inactive: 4.87%.
As to `COc1ccc(CN2CCC(n3cc(C(=O)N4CCCC4)nn3)CC2)c(OC)c1C`, the activation was inactive: -4.41%.
In the case of `CC1CC2C3CCC4=CC(=O)C=C[C@]4(C)[C@@]3(Cl)C(O)C[C@]2(C)C1(OC(=O)c1ccco1)C(=O)CCl` (stereo partly drawn) it was inactive: -23.1%; in that of `CCCCCc1ccc(-c2cn(CCc3c[nH]c4ccccc34)nn2)cc1`, inactive: -19.3%; in that of `CC(=O)OC1CCC23CC1(C)CCC2C(C)(C)CC3OC(C)=O` (stereo not drawn), inactive: -9.01%.
In the case of `COc1ccc(OC)c2c(C)ccnc12` it was inactive: -10.2%; in that of `O=C(NCC1(N2CCOCC2)CCCCC1)c1cnn(-c2nccc(-c3ccco3)n2)c1C1CC1`, inactive: 7.16%; in that of `O=c1c(CCc2ccccc2)nc2cnc(N3CCOCC3)nc2n1CCc1ccccc1`, inactive: -9.04%.
In the case of `CC(C)(C)C1CCC(=O)N(CCSc2ccccc2)CC1` (stereo not drawn) it was inactive: -16%; in that of `CC(=O)Oc1cc(OC(C)=O)c2c(c1)OC(c1ccc(OC(C)=O)c(OC(C)=O)c1)C(OC(C)=O)C2` (stereo not drawn), inactive: -21.9% and inactive: -5.37%.
Consider `C=CC[C@@H]1/C=C(\C)C[C@H](C)C[C@H](OC)[C@H]2O[C@@](O)(C(=O)C(=O)N3CCCC[C@H]3C(=O)O[C@H](/C(C)=C/[C@@H]3CC[C@@H](O)[C@H](OC)C3)[C@H](C)[C@@H](O)CC1=O)[C@H](C)C[C@@H]2OC`, for which the activation is inactive: -32.1%.
For the compound `C=C(C)C1Cc2c(ccc(C(=O)O)c2O)O1` (stereo not drawn), the activation is inactive: -11%.
In the case of `Cc1cnc(CNc2ccnc(-c3ccc(C(=O)N(C)C)cc3)n2)cn1` it was inactive: -2.76%.
